# Measured values published in PubChem BioAssay AID1345082 (National Center for Advancing Translational Sciences (NCATS), 2018).
# Among all 94,000 compounds or so, about 4,000 (4.3%) were called active. The inconclusive results got no clear call from the source; some entries with a clear call stand among them for comparison. Calls follow the shape of the dose curve; as a rule, active = well fitted inhibition curve with a large enough effect; inconclusive = small, poorly fitted or top-dose-only effect; inactive = no such curve, though single readings can be large or run the other way. A potency beside an inconclusive call is a rough fit, not a confirmed value.
# Assay: Cytotoxic Profiling in NIH 3T3 Cell Line of Diverse Libraries Using Quantitative High-Throughput Screening; also: nearly all actives have a fitted effect of over 55% in size
# Conditions: NIH 3T3 viability, CellTiter-Glo ATP luminescence, 48-72 h; series mostly up to 96.7 µM
# How it was run: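 Mouse fibroblast NIH 3T3 cells, 400 per well, received compound via pintool and were incubated for 48 or 72 hr prior to CellTiter-Glo ATP luminescence measurement.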
# Potency is read from the fitted curve at half-maximal effect; tags tell the direction and shape of the fitted curve.
row,Compound,Potency
1,CC(NC(=O)C1CN(c2ccc(Cl)cc2)C(=O)N1)c1ccc(F)cc1 (centres undefined),"inconclusive: 44.7 µM [inhibitor, partial curve, poor fit]"
2,CN1c2cc(C(=O)Nc3ccc(F)cc3)ccc2C(=O)N2CCCCCC21 (centres undefined),"inconclusive: 56.2 µM [inhibitor, partial curve, poor fit]"
3,CCCN(C)C(=O)c1cc(-c2ccncc2)cn1Cc1ccccc1C,"inconclusive: 50.1 µM [inhibitor, partial curve, poor fit]"
4,CC(C)Cc1cnc(-c2ccccc2)[nH]1,"inconclusive: 63.1 µM [inhibitor, full curve, poor fit]"
5,CN1Cc2ccc(NCc3ccccc3)nc2C(C)(C(=O)NCc2ccc3c(c2)OCO3)C1 (centres undefined),"inconclusive: 44.7 µM [inhibitor, partial curve, poor fit]"
6,CCNC(=O)N1CCC(c2noc(COCCOC)n2)CC1,inactive
7,C[S+](=O)([O-])NC1CC2(CCN(C(=O)c3ccccc3)CC2)c2ccccc21 (centres undefined),"inconclusive: 44.7 µM [inhibitor, partial curve, poor fit]"
8,c1ccc(-c2noc(-c3ccccc3OC3CCNC3)n2)cc1 (centres undefined),active: 12.6 µM
9,CCc1nc2c(c(-c3ccc(Cl)cc3)n1)CN(Cc1ccc(C(F)(F)F)cc1)CC2,"inconclusive: 44.7 µM [inhibitor, partial curve, poor fit]"
10,Nc1nc(C2CC(N)C2)cc(N2CCN(C3CCCC3)C(=O)C2)n1 (centres undefined),inactive
11,O=C(Cn1c(=O)oc2ccccc21)N[C@@H]1CCOC[C@H]1Oc1ccccn1,inactive
12,O=C1Cc2c(-c3ccc(N4CCOCC4)cc3)n[nH]c2CN1CCc1ccncc1,active: 79.4 µM
13,C[S+](=O)([O-])N1CCN(CCCn2nc3n(c2=O)CCCC3)CC1,inactive
14,Fc1cccc(-c2cc(-c3cn[nH]c3)c3cncn3c2)c1,"inconclusive: 89.1 µM [inhibitor, partial curve, poor fit]"
15,COc1ccc(CNC(=O)C2CCCN2Cc2cccc(-c3ccc(C)c(Cl)c3)c2)cc1 (centres undefined),active: 31.6 µM
16,Cc1ccc(-c2ccccc2CN2CCN(C(=O)c3ccc(F)cc3)CC2)cc1Cl,"inconclusive: 44.7 µM [inhibitor, partial curve, poor fit]"
17,O=C1CCN(Cc2ccncc2)CCCC(C(=O)NCc2ccc(F)cc2)CCN1 (centres undefined),inactive
18,O=C(c1ccc(F)cc1)N1CCc2nc(C3CC3)nc(-c3ccc(O)cc3)c2C1,"inconclusive: 50.1 µM [inhibitor, partial curve, poor fit]"
19,Cc1cccc(S(=O)(=O)N2CCCC(Cn3c(C4CC4)nc4cccnc43)C2)c1 (centres undefined),"inconclusive: 70.8 µM [inhibitor, partial curve, poor fit]"
20,Cn1ccc2ccc(C(=O)Nc3ccc4c(c3)C(=O)N3CCC[C@H]3C(=O)N4)cc21,"inconclusive: 28.2 µM [inhibitor, full curve]"
21,COc1ccc(NC(=O)c2ccc3c(c2)NC(C)(COc2ccccc2)CO3)cn1 (centres undefined),"inconclusive: 89.1 µM [inhibitor, partial curve, poor fit]"
22,COc1cccc(N2C(=O)NC(=NC3CCCC3)C23CCCN(Cc2ccccc2)C3)c1 (centres undefined),"inconclusive: 50.1 µM [inhibitor, partial curve, poor fit]"

row,Compound,Potency
1,COC1CCC12CCN(Cc1ccc(C#N)cc1)CC2 (centres undefined),inactive
2,COc1ccc2[nH]c3c(c2c1)CCN(C)C31CCN(C(=O)c2ccc3ncccc3c2)CC1,"inconclusive: 44.7 µM [inhibitor, partial curve, poor fit]"
3,CC(C)CCN1C(=O)N(CCCc2ccncc2)C(=O)C12CCN(CC1=CC[C@H]3C[C@@H]1C3(C)C)CC2,inactive
4,COCCCN(CCC(=O)NCCc1ccccc1)C(=O)c1cc(C)oc1C,"inconclusive: 50.1 µM [inhibitor, partial curve, poor fit]"
5,COc1ccc(-c2noc(Nc3ccc(C)c(C)c3)n2)cc1,"inconclusive: 50.1 µM [inhibitor, partial curve, poor fit]"
6,COc1cccc(CCC(=O)N2CC(c3noc(COc4ccc(C)cc4)n3)C2)c1,"inconclusive: 50.1 µM [inhibitor, partial curve, poor fit]"
7,CC(C)n1c(C2CCCN(C(=O)Cc3ccccc3)C2)nn(C)c1=O (centres undefined),"inconclusive: 31.6 µM [inhibitor, partial curve, poor fit]"
8,Cc1ccc(-n2nc3n(c2=O)CCN(C(=O)c2ccccc2)C3)cc1,"inconclusive: 50.1 µM [inhibitor, partial curve, poor fit]"
9,O=C(OCc1ccccc1)N1CCOCC12CCN(Cc1cccs1)CC2,active: 28.2 µM
10,CCN1C(=O)CCc2cc(NC(=O)c3ccc(OC)cc3C)ccc21,"inconclusive: 50.1 µM [inhibitor, partial curve, poor fit]"
11,C#CCN(C)C(=O)C[C@@H]1c2nc(NC(=O)CCCCC)sc2C[C@@H]2[C@](C)(CO)[C@H](O)CC[C@]21C,inactive
12,COc1ccc(OC)c(CN2CCNc3cnc(OCc4cccnc4)cc3C2)c1,"inconclusive: 56.2 µM [inhibitor, partial curve, poor fit]"
13,O=C(c1ccco1)N1CCC(Cc2nc(-c3ccccc3)no2)CC1,"inconclusive: 50.1 µM [inhibitor, partial curve, poor fit]"
14,COc1cccc(C(=O)N2CCC3(CC2)N=C(c2ccc(Br)cc2)NO3)c1,"inconclusive: 70.8 µM [inhibitor, single point]"
15,O=C(Cc1ccc(F)cc1)NC1CCN(CCn2nc3n(c2=O)CCCC3)C1 (centres undefined),inactive
16,CCN(CC)C(=O)N1CCCCCCNC(=O)[C@@H]2C[C@@H](c3nc(-c4cccnc4)no3)C[C@@H]21,"inconclusive: 70.8 µM [inhibitor, single point]"
17,O=C1Nc2ccc(-c3ccc4c(c3)OCO4)cc2C(=O)N2CCN(C(=O)C3CCCC3)C[C@@H]12,"inconclusive: 79.4 µM [inhibitor, single point]"
18,O=C(C[C@@H]1CCNC[C@@H]1Cc1cc(-c2ccccc2)on1)NCc1ccccc1,active: 100 µM
19,N#Cc1ccc(CN2C3CCC2CN(C(=O)c2ccncc2)C3)cc1,"inconclusive: 89.1 µM [inhibitor, single point]"
20,COc1ccc(-c2ccc3ncn(Cc4ccccn4)c(=O)c3n2)cc1F,"inconclusive: 44.7 µM [inhibitor, partial curve, poor fit]"
21,CCCn1cc(C2CCN(S(=O)(=O)c3c(C)c(C)cc(C)c3C)CC2)c2ccccc21,inactive
22,COc1ccccc1C(=O)N1CCC(N2C(=O)c3c(c(C)nn3-c3ccccc3)C2C2CC2)C1 (centres undefined),"inconclusive: 44.7 µM [inhibitor, partial curve, poor fit]"

row,Compound,Potency
1,O=C(NCCN1CCOCC1)c1ccc2c(c1)CC(=O)N2Cc1cccc(F)c1,inactive
2,Cc1ccccc1NC(=O)CC(=O)N1CCC(Oc2ccccc2C)CC1,"inconclusive: 56.2 µM [inhibitor, partial curve, poor fit]"
3,Cc1n[nH]c(C)c1CNC(=O)CCC[C@H]1NC[C@@H]2C[C@H]1CN(Cc1ccccc1)C2,inactive
4,CC(C)c1noc(C2CCCN(S(=O)(=O)c3ccc4c(c3)CCC4)CCC(=O)NCC2)n1 (centres undefined),"inconclusive: 50.1 µM [inhibitor, partial curve, poor fit]"
5,O=C(Nc1ccccc1F)N1CCCCCC1CN1CCCC1 (centres undefined),inactive
6,O=C(NC1CCCN(CCn2nc3n(c2=O)CCCC3)C1)c1cccnc1 (centres undefined),inactive
7,Cn1ccnc1CN1C(=O)CO[C@H](c2ccc(NC(=O)Nc3ccccc3)cc2)[C@H]1CO,inactive
8,CC(C)Cn1c(=O)c(C(=O)N2CCC(c3ccccc3)CC2)nc2cccnc21,"inconclusive: 70.8 µM [inhibitor, single point]"
9,CC1(C)NC(=O)N(CCC(=O)N2CCCCC2c2noc(COCc3ccc(F)cc3)n2)C1=O (centres undefined),inactive
10,O=C(NCC1CC1)c1cc(Br)cn2ccnc12,"inconclusive: 100 µM [inhibitor, partial curve, poor fit]"
11,Cn1ncc2c(C(=O)NCc3ccc4c(c3)OCO4)cc(-c3ccccc3C(F)(F)F)nc21,"inconclusive: 20 µM [inhibitor, full curve, poor fit]"
12,Cc1noc(C)c1-c1cc2cc(CO)oc2c(-c2ccccc2)n1,"inconclusive: 50.1 µM [inhibitor, partial curve, poor fit]"
13,CN(C(=O)c1ccc(F)cc1)C1CCc2ccccc21 (centres undefined),"inconclusive: 56.2 µM [inhibitor, partial curve, poor fit]"
14,O=C(NC[C@H]1O[C@H](Cc2cc(-c3ccc(F)cc3)on2)CC[C@@H]1O)c1ccncc1,inactive
15,Cc1ccc(S(=O)(=O)N2C[C@@H](F)C[C@H]2C(=O)N2CCCCC2)cc1Cl,inactive
16,O=C(N[C@H]1CCN2C(=O)c3ccc(Cl)cc3NC(=O)[C@H]12)c1cccc(F)c1,"inconclusive: 112 µM [inhibitor, single point]"
17,COc1cccc(-c2ccc(C(=O)NCCNC(=O)c3cccnc3)cc2)c1,inactive
18,N#Cc1cccc(C(=O)N2CCN3CCS(=O)(=O)N(C4CC4)C(=O)C3C2)c1 (centres undefined),inactive
19,Cc1nc(N2CCC(NC(=O)c3cccs3)CC2)cc(C(F)(F)F)n1,"inconclusive: 35.5 µM [inhibitor, partial curve]"
20,Cc1cccc(CN(C(=O)c2ccco2)c2ccc(CC(=O)N(C)Cc3ccccc3)cc2)c1,"inconclusive: 44.7 µM [inhibitor, partial curve, poor fit]"
